In the supplement of paper PMC11417369:
Some of the results follow.

What follows are sequences tested on PfAP2-HC AP2 domain (GST-tagged) (assay: gcPBM binding intensity (ln(normalized median fluorescence intensity)); higher = stronger DNA binding).
Summary of the method: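 Plasmodium falciparum DNA-binding domains carrying a GST tag were expressed in E. coli and applied for 1 h, at about 25 μg on average, to an Agilent 4 × 180k array. The array held primer-extended double-stranded 36-bp intergenic genomic probes together with negative controls, and binding took place in 1× PBS with 1% milk, 0.2 mg/ml BSA, 0.5% salmon testes DNA and 0.03% Triton X-100. An Alexa488 anti-GST antibody detected bound protein, and the array was scanned at 488 nm. Binding intensity is taken as the highest Masliner-normalised natural-log median intensity across replicate spots of either probe orientation.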

Row | Sequence | gcPBM binding intensity (ln)
1 | ATTCTAAATATCAGTGCACACATTTCTACGCAAAGT [CACACA_site474] | 9.87
2 | GTTGTTATATAAAATTGTACATAAAAAACAAAATAT [XGTACX_site5313] | 9.66
3 | TAAAATTATTAATGAGTGCATTATAAAATCTATATA [GTGCAC_site9493] | 9.36
4 | TTTTCTTTCTTTCAAACACACATTAATTTTATTCAT [CACACA_site2734] | 9.79
5 | ATAAATGGCTATAGCATATTGTATATGTGATTATAA [CACACA_negctrl_site948] | 10
6 | ATAATTGTTTAAAGGTGTACAATACATATATTTTAA [XGTACX_site3648] | 9.64
7 | TCATATATTATATATTGTACAAAATAATAAGTATTT [XGTACX_site3987] | 9.44
8 | ATGCAATTATATAGTAGTACAAATTTATAAATATAC [XGTACX_site4869] | 9.76
9 | ATTATACACCCGCGCACACACAACAAAAAAAAAAAA [CACACA_site5871] | 11.1
10 | ATATATATATATATGGGTACGTAAAAATATAATAAA [XGTACX_site4036] | 9.99
11 | ATGAAAATATTTAAAAGTACAGAAATATAAAACCTT [XGTACX_site403] | 9.82
12 | CACAAATATACAAATACACACAAATATACACATATA [CACACA_site7176] | 10.1
13 | AAAATATTTATCATTTGTACTTAGATGTAAACTTGA [XGTACX_site1778] | 9.43
14 | TATAAAATATAAATAAATAAATAAATATATATATAT [TGCATGCA_negctrl_site448] | 9.66
15 | TATTTTATACACTTGCTAAAACATTAACACATATGT [CACACA_negctrl_site1818] | 9.83
16 | TATATATATATATATTGTACTAAATCATTTAAATGA [XGTACX_site8016] | 9.39
17 | AAAAAACAAAAACACACGCACACAAAAAAAAAAAAA [CACACA_site802] | 10.2
18 | ACCTATATAAATTATACACACAAATATAAATATATA [CACACA_site2843] | 9.79
19 | AATTATATATAACGTAGTACATATTATAAACCACGT [XGTACX_site8816] | 9.76
20 | TGTCATAAAACCGTTTGTACATATTAATAGACACCT [XGTACX_site4520] | 9.54
21 | TTGTTATTCCACCGTTGTACAGTTATATACATACAC [XGTACX_site8296] | 9.8
22 | TATAATAATAATGATAGTACGTATGAGTTCAAGAAA [XGTACX_site4918] | 9.76

Row | Sequence | gcPBM binding intensity (ln)
23 | ATATTCCTTTAATATTGTACTATTTTTTTCCTTATA [XGTACX_site8659] | 9.87
24 | TATAATTTTCTTAGTAGTACATTTTAAATCTACTAC [XGTACX_site2621] | 9.51
25 | TGTATCCACATATGTACACACATATATCTGTATATG [CACACA_site5668] | 9.9
26 | ACTAATAACAAAAGCTTGCACTTTTTTTTTCCTAAT | 9.51
27 | TATGTACAAATATGTACACACACACCGATATATATA [CACACA_site4487] | 10.1
28 | AAAAAAAAAAAAAAAAGTACAAAAATTATATTAAGA [XGTACX_site4255] | 9.59
29 | ATATAAGATTACAAAAATTATGTGTAAATATTTAAT [XGTACX_negctrl_site448] | 9.69
30 | AAAAAAATTACATATCCATTTTAACATAATAAATAG [GTGCAC_negctrl_site618] | 9.44
31 | ATTCTATTCTCCTTCACACACAAAAATATTTCATCA [CACACA_site2360] | 10.1
32 | ATCTATGGGTAGTATACACACTGTATATTTAGGAAT [CACACA_site5569] | 9.69
33 | TTACGAATAAAACAGTGTACATTGAATTTCTATGAG [XGTACX_site4771] | 9.51
34 | TCCATGCAGAAACACACACACAAAAAAAAATTCTTT [CACACA_site4099] | 10.4
35 | ACATGTTTTATGTGCACACAAAGTTGTTATGAGGTT [CACACA_site4031] | 10
36 | ATATAATATTTCATGTGGACACATTTTATGATTGTA [XGTACX_site8770] | 9.67
37 | ACACATATATATTATTATTATATAATATATATATAT [CACACA_negctrl_site1545] | 9.66
38 | AATCAAAATTAATTAACACACAATTTTAATATTCTT [CACACA_site2063] | 9.55
39 | ATAGTAAACGAAATAAAAAGATTAGCATAATATCCT [CACACA_negctrl_site1730] | 9.79
40 | TCCTGTGATTATATAACACACATTATTGCTTATAAG [CACACA_site1518] | 9.78
41 | ATATATTATATATATTACAACTTAAGAATATACATA [TGCATGCA_negctrl_site371] | 9.57
42 | ATTGTTTATATTGATTGTACTCATTTTTTTTTTATT [XGTACX_site1946] | 9.8
43 | ATATATTGAAAAAAATGTACGTATTTTTTTATGTTA [XGTACX_site4654] | 9.57
44 | ATTATATATATATATACACACACACCCTAAAAATAT [CACACA_site8463] | 10.5
